Data reported in the supplement of paper PMC8948288.
The sequences are guide strands of siRNAs; only the seed at positions 2 to 7 varies.

Assays:
[1] = system: H4; assay: cell viability relative to siNT1 (ATP content); H4 human neuroglioma and GL261 mouse glioma; higher = less toxic; details: siRNA concentration 10 nM; 96 h; human
[2] = system: GL261; assay: as above; details: siRNA concentration 25 nM; 96 h; mouse
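Further: cells reverse transfected with siRNA duplexes via lipid reagent, ATP read by luminescence, triplicate wells, values scaled to mean viability with non-targeting control siNT1.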

Row | Sequence | cell viability [1] | cell viability [2]
1 | UUGCACCACAUGUAAACCA | 41.1% | 39%
2 | UUGCACGACAUGUAAACCA | 97.6% | 39.5%
3 | UUGCACUACAUGUAAACCA | 70.7% | 20.3%
4 | UUGCAGAACAUGUAAACCA | 59.1% | 30.6%
5 | UUGCAGCACAUGUAAACCA | 47.6% | 12.2%
6 | UUGCAGGACAUGUAAACCA | 10.9% | 35.6%
7 | UUGCAGUACAUGUAAACCA | 53.3% | 21.6%
8 | UUGCAUAACAUGUAAACCA | 93.1% | 62.1%
9 | UUGCAUCACAUGUAAACCA | 55.6% | 32.1%
10 | UUGCAUGACAUGUAAACCA | 60.2% | 32.1%
11 | UUGCAUUACAUGUAAACCA | 81.1% | 56.1%
12 | UUGCCAAACAUGUAAACCA | 61.3% | 46.2%
13 | UUGCCACACAUGUAAACCA | 38.8% | 18.3%
14 | UUGCCAGACAUGUAAACCA | 75.2% | 50.7%
15 | UUGCCAUACAUGUAAACCA | 29.7% | 52.8%
16 | UUGCCCAACAUGUAAACCA | 65.1% | 49.3%
17 | UUGCCCCACAUGUAAACCA | 61.3% | 30.1%
18 | UUGCCCGACAUGUAAACCA | 79.5% | 46.8%
19 | UUGCCCUACAUGUAAACCA | 41.2% | 27.3%
20 | UUGCCGAACAUGUAAACCA | 64.6% | 39%
21 | UUGCCGCACAUGUAAACCA | 53% | 23%
22 | UUGCCGGACAUGUAAACCA | 35.2% | 36.7%
23 | UUGCCGUACAUGUAAACCA | 57.8% | 26%
24 | UUGCCUAACAUGUAAACCA | 93.2% | 49%

Row | Sequence | cell viability [1] | cell viability [2]
25 | UUGCCUCACAUGUAAACCA | 52.4% | 50.9%
26 | UUGCCUGACAUGUAAACCA | 21% | 53.7%
27 | UUGCCUUACAUGUAAACCA | 29% | 33%
28 | UUGCGAAACAUGUAAACCA | 98.7% | 55.1%
29 | UUGCGACACAUGUAAACCA | 51.8% | 22%
30 | UUGCGAGACAUGUAAACCA | 80.1% | 78.8%
31 | UUGCGAUACAUGUAAACCA | 88.8% | 33.9%
32 | UUGCGCAACAUGUAAACCA | 96.3% | 63.3%
33 | UUGCGCCACAUGUAAACCA | 46.1% | 19.7%
34 | UUGCGCGACAUGUAAACCA | 70.8% | 60.8%
35 | UUGCGCUACAUGUAAACCA | 98.6% | 50.5%
36 | UUGCGGAACAUGUAAACCA | 77.5% | 44.7%
37 | UUGCGGCACAUGUAAACCA | 60.3% | 25.3%
38 | UUGCGGGACAUGUAAACCA | 73.8% | 41.5%
39 | UUGCGGUACAUGUAAACCA | 53.3% | 28.6%
40 | UUGCGUAACAUGUAAACCA | 106% | 68.7%
41 | UUGCGUCACAUGUAAACCA | 82.6% | 35.5%
42 | UUGCGUGACAUGUAAACCA | 77.1% | 45.9%
43 | UUGCGUUACAUGUAAACCA | 79.2% | 49.1%
44 | UUGCUAAACAUGUAAACCA | 87.7% | 51.9%
45 | UUGCUACACAUGUAAACCA | 13% | 39.5%
46 | UUGCUAGACAUGUAAACCA | 62.7% | 62.9%
47 | UUGCUAUACAUGUAAACCA | 47.9% | 52.3%
48 | UUGCUCAACAUGUAAACCA | 78.8% | 49.9%

Row | Sequence | cell viability [1] | cell viability [2]
49 | UUGCUCCACAUGUAAACCA | 33.6% | 30.3%
50 | UUGCUCGACAUGUAAACCA | 104% | 49.4%
51 | UUGCUCUACAUGUAAACCA | 56.7% | 43.9%
52 | UUGCUGAACAUGUAAACCA | 61.6% | 40.6%
53 | UUGCUGCACAUGUAAACCA | 55.3% | 20.7%
54 | UUGCUGGACAUGUAAACCA | 47.3% | 41.5%
55 | UUGCUGUACAUGUAAACCA | 62.3% | 19.5%
56 | UUGCUUAACAUGUAAACCA | 101% | 86.7%
57 | UUGCUUCACAUGUAAACCA | 50.4% | 46.9%
58 | UUGCUUGACAUGUAAACCA | 91.3% | 53.8%
59 | UUGCUUUACAUGUAAACCA | 101% | 64.9%
60 | UUGGAAAACAUGUAAACCA | 93.3% | 51.5%
61 | UUGGAACACAUGUAAACCA | 80.9% | 37.5%
62 | UUGGAAGACAUGUAAACCA | 77.6% | 49.7%
63 | UUGGAAUACAUGUAAACCA | 63.6% | 55.6%
64 | UUGGACAACAUGUAAACCA | 53.7% | 30.6%
65 | UUGGACCACAUGUAAACCA | 63.5% | 42.8%
66 | UUGGACGACAUGUAAACCA | 83.1% | 38.9%
67 | UUGGACUACAUGUAAACCA | 23.8% | 19.6%
68 | UUGGAGAACAUGUAAACCA | 50.2% | 50.5%
69 | UUGGAGCACAUGUAAACCA | 16.6% | 20.6%
70 | UUGGAGGACAUGUAAACCA | 33.2% | 30.6%
71 | UUGGAGUACAUGUAAACCA | 65.1% | 44.9%
72 | UUGGAUAACAUGUAAACCA | 84.2% | 81.1%

Row | Sequence | cell viability [1] | cell viability [2]
73 | UUGGAUCACAUGUAAACCA | 37.3% | 38.8%
74 | UUGGAUGACAUGUAAACCA | 76% | 58.2%
75 | UUGGAUUACAUGUAAACCA | 93.1% | 59.5%
76 | UUGGCAAACAUGUAAACCA | 73.5% | 39.7%
77 | UUGGCACACAUGUAAACCA | 50.8% | 27.9%
78 | UUGGCAGACAUGUAAACCA | 72% | 21.4%
79 | UUGGCAUACAUGUAAACCA | 89.4% | 22.8%
80 | UUGGCCAACAUGUAAACCA | 48.5% | 83.7%
81 | UUGGCCCACAUGUAAACCA | 50.6% | 51.4%
82 | UUGGCCGACAUGUAAACCA | 54.6% | 76.8%
83 | UUGGCCUACAUGUAAACCA | 45.4% | 71.4%
84 | UUGGCGAACAUGUAAACCA | 93.3% | 47%
85 | UUGGCGCACAUGUAAACCA | 78.1% | 61.2%
86 | UUGGCGGACAUGUAAACCA | 17.5% | 38.4%
87 | UUGGCGUACAUGUAAACCA | 71.7% | 38.5%
88 | UUGGCUAACAUGUAAACCA | 95.2% | 36.1%
89 | UUGGCUCACAUGUAAACCA | 67.3% | 26.3%
90 | UUGGCUGACAUGUAAACCA | 89% | 57.2%
91 | UUGGCUUACAUGUAAACCA | 100% | 64.5%
92 | UUGGGAAACAUGUAAACCA | 93.2% | 38.3%
93 | UUGGGACACAUGUAAACCA | 55.5% | 31.5%
94 | UUGGGAGACAUGUAAACCA | 59.9% | 26%
95 | UUGGGAUACAUGUAAACCA | 62.4% | 24.8%
96 | UUGGGCAACAUGUAAACCA | 80% | 49%

Row | Sequence | cell viability [1] | cell viability [2]
97 | UUGGGCCACAUGUAAACCA | 28.3% | 31.2%
98 | UUGGGCGACAUGUAAACCA | 31.6% | 27.5%
99 | UUGGGCUACAUGUAAACCA | 24.1% | 20%
100 | UUGGGGAACAUGUAAACCA | 33.7% | 47.2%
101 | UUGGGGCACAUGUAAACCA | 29.6% | 13.6%
102 | UUGGGGGACAUGUAAACCA | 6.92% | 9.7%
103 | UUGGGGUACAUGUAAACCA | 29.6% | 29.2%
104 | UUGGGUAACAUGUAAACCA | 76.3% | 39.9%
105 | UUGGGUCACAUGUAAACCA | 54.2% | 10.3%
106 | UUGGGUGACAUGUAAACCA | 19.6% | 29.7%
107 | UUGGGUUACAUGUAAACCA | 60.2% | 52.2%
108 | UUGGUAAACAUGUAAACCA | 76.2% | 53.1%
109 | UUGGUACACAUGUAAACCA | 57.8% | 32.8%
110 | UUGGUAGACAUGUAAACCA | 42.2% | 35.2%
111 | UUGGUAUACAUGUAAACCA | 57.3% | 50.1%
112 | UUGGUCAACAUGUAAACCA | 62.4% | 28.9%
113 | UUGGUCCACAUGUAAACCA | 52.8% | 48.4%
114 | UUGGUCGACAUGUAAACCA | 75.3% | 27%
115 | UUGGUCUACAUGUAAACCA | 52.7% | 47.7%
116 | UUGGUGAACAUGUAAACCA | 99.1% | 30.7%
117 | UUGGUGCACAUGUAAACCA | 50.5% | 43.8%
118 | UUGGUGGACAUGUAAACCA | 19% | 33%
